# Data as given in PubChem BioAssay AID488969 (Vanderbilt High Throughput Screening Facility, 2010).
# Whole data set: some 110,000 compounds, median “z-score” near -0.1, cut for the highest 2% near 2. Some of the results follow.
# Biological target: Metabotropic glutamate receptor 8 (Rattus norvegicus) (UniProt P70579)
# Experiment: mGluR8 Gi/Go-coupled signaling modulation – cell-based, rat, thallium flux, HTS, primary screen (AID 488969)
# Conditions: HEK293 rat mGluR8, GIRK (G protein-gated inwardly rectifying potassium channel) thallium flux, FluoZin2; at 10 µM; stronger effect = higher value; submaximal glutamate (EC20) added with thallium
# UniProt P70579, sequence (P70579 whole entry, looked up): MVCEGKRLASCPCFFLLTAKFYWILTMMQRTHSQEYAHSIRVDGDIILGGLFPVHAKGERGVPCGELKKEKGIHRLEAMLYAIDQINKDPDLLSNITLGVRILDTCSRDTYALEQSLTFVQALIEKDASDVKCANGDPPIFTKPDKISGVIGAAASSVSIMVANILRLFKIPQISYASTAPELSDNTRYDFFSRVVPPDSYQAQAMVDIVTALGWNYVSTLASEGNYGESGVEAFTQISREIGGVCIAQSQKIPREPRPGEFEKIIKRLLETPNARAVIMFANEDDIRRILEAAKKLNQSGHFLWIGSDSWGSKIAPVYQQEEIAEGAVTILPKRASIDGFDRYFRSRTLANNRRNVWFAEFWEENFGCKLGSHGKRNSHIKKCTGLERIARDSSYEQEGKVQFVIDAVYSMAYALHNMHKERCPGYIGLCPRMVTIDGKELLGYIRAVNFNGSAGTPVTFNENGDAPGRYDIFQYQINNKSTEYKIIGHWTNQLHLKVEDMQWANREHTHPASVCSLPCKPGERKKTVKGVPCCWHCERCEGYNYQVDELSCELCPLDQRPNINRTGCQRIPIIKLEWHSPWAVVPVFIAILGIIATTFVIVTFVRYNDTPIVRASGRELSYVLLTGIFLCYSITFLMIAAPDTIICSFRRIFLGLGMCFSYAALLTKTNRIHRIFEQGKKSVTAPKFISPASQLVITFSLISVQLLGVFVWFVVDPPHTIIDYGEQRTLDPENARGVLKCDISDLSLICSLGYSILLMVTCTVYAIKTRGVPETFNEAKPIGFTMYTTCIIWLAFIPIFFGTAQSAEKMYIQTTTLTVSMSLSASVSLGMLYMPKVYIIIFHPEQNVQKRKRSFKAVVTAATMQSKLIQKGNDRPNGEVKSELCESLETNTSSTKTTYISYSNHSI
row,Compound,z-score
1,CC(=O)c1cccc(NC(=O)c2cc(-c3ccc(F)cc3)on2)c1,-0.286
2,NC(=O)c1sc2nc3c(c(-c4cccnc4)c2c1N)CCC3,0.964
3,Cc1ccc(C)c(NC(=O)Cn2c([N+](=O)[O-])cnc2C)c1,-0.109
4,CCOC(=O)C1CCCN(C(=O)CC(C)c2ccccc2)C1 (centres undefined),-0.335
5,O=C(NC1CCCc2ccccc21)c1ccc(CNc2c(N3CCOCC3)c(=O)c2=O)cc1 (centres undefined),-0.316
6,O=C(NCCCO)NC12CC3CC(CC(C3)C1)C2,-0.299
7,CCOC(=O)c1sc(NC(=O)C(CC)OC(=O)C(CC(C)C)NC(=O)c2ccccc2)nc1C (centres undefined),-0.142
8,Cc1noc(C)c1COc1ccc(C(=O)OCC(=O)N2CC(=O)Nc3ccccc32)cc1,-0.373
9,CC(=O)N=C1SC2CS(=O)(=O)CC2N1c1cccc(Cl)c1Cl (centres undefined),-0.0248
10,Cc1nc2ccccc2n1C1CCN(CC(=O)NCc2ccc(F)cc2)CC1,0.185
11,O=C(CN1CCCCCC1)N1c2ccccc2C=Cc2ccccc21,0.816
12,Cc1ccc(S(=O)(=O)N2CCN(S(=O)(=O)N3CCCCC3)CC2)cc1,-0.495
13,Cc1ccc(NC(=O)Nc2ccc(F)cc2)nc1,-0.00242
14,Cc1ccc(OCc2nnc(NC(=O)Cc3cccs3)s2)cc1,0.179
15,CCOC(=O)NC1(C(F)(F)F)C(=O)NC(C)=C1C(=O)OC (centres undefined),-0.362
16,Cc1cc(C(=O)COC(=O)CNC(=O)c2ccc(Cl)c(Cl)c2)c(C)n1Cc1ccco1,0.295
17,CCOC(=O)C(NC(=O)Nc1ccc(Cl)cn1)(Oc1ccccc1)C(F)(F)F (centres undefined),-0.558
18,COc1ccc(CCNC(=O)c2cc(=O)[nH]c3ccc(Br)cc23)cc1OC,0.0589
19,N#C/C(=C\c1ccc(/C=C(/C#N)c2nn(CCO)c(N)c2C#N)cc1)c1nn(CCO)c(N)c1C#N,0.333
20,O=C(O)/C(=C\c1ccco1)NC(=O)c1cccc2ccccc12,0.155
21,CCCc1cc2c(=O)n(NC(=O)c3nn(C)cc3[N+](=O)[O-])c(C)nc2s1,-0.136
22,CCN(CC)S(=O)(=O)c1cc([N+](=O)[O-])ccc1NNC(=O)Nc1ccc(F)cc1,0.544
23,Cn1cnnc1SC1CCCCC1NS(=O)(=O)c1ccccc1 (centres undefined),0.0963
24,NC(=O)C1(N2CCCCC2)CCN(C(=O)c2ccc(C#Cc3ccccc3)o2)CC1,-0.104
25,Cc1csc(C(C#N)C(=O)c2ccc(S(=O)(=O)N3CCCC3)cc2)n1 (centres undefined),0.626
26,N/C(=N\OC(=O)CCc1ccccc1)c1ccc(Cl)cc1,-0.162
27,COc1ccccc1C(=O)NCCCN1CCCC1=O,-0.389

row,Compound,z-score
1,C=CCOc1c(Br)cc(/C=N/n2c(CC)n[nH]c2=S)cc1Br,0.318
2,CCOc1ccc(N2CC(C(=O)Nc3ccc(N4CCOCC4)cc3)CC2=O)cc1 (centres undefined),-0.107
3,Cc1cc(NC(=O)/C=C/c2ccccc2Cl)no1,-0.166
4,CCOc1cc(C(=O)N(C)Cc2cc3ccccc3[nH]c2=O)cc(OCC)c1OCC,-0.244
5,O=S(=O)(N1CCCCC1)N1CCNCC1,-0.187
6,CCC1(C(=O)OC)NC(c2ccco2)C2C(=O)N(c3ccc(C)cc3)C(=O)C21 (centres undefined),-0.259
7,CC1CCc2ccc(F)cc2N1S(=O)(=O)c1cccs1 (centres undefined),-0.186
8,O=[n+]1cc(-c2ccccc2)n([O-])c2c1CCCCC2,0.164
9,O=C(CSc1nnc(-c2ccncc2)o1)NCc1ccccc1,-0.00508
10,O=C(/C=C/c1cc([N+](=O)[O-])ccc1OC(F)F)Nc1cccc2ccccc12,0.12
11,O=S(=O)(c1cccc2nsnc12)N1CCc2ccccc21,-0.286
12,COc1ccc(-c2nc3ccccn3c2NCc2ccc3c(c2)OCO3)cc1,-1.02
13,O=C(COC(=O)COc1cccc(Br)c1)Nc1c(Cl)cccc1Cl,-0.328
14,O=C1CCCC2=C1C(c1cn(-c3ccccc3)nc1-c1cccs1)c1c([nH]c(=O)[nH]c1=O)N2 (centres undefined),-0.397
15,CCOc1ccc(C(=O)C2CCN(CC(=O)Nc3ccccc3N3CCOCC3)CC2)cc1,-0.217
16,O=C(/C=C/Nc1cccc(C(F)(F)F)c1)c1ccc(Oc2ncccn2)cc1,-0.244
17,COC(=O)c1cnn(-c2nc(OC)cc(OC)n2)c1C,-0.0792
18,CCOC(=O)C(C(=O)OCC)C(CC(=O)C1CC1)c1ccccc1 (centres undefined),-0.144
19,COc1ccc(NC(=O)CN2CCN(c3ccccc3F)CC2)cc1,-0.481
20,CCNc1nc(NCC)n2c(SCc3nc4ccccc4c(=O)[nH]3)nnc2n1,-0.275
21,CCNC(=O)CN1C(=O)NC2(CCCc3cc(OC)ccc32)C1=O (centres undefined),0.037
22,O=C1CC(c2ccc(F)cc2)SC(N(c2ccccc2)c2ccccc2)=N1 (centres undefined),0.228
23,COC(=O)c1cc(NC2c3ccccc3C(=O)N2Cc2ccco2)cc(C(=O)OC)c1 (centres undefined),0.42
24,O=C(NC(CSCc1ccccc1)C(=O)N/N=C/c1ccc(O)cc1O)c1ccc([N+](=O)[O-])cc1 (centres undefined),-0.454
25,Cc1cccc(C(CC(=O)O)n2cccc2)c1 (centres undefined),-0.29
26,CC(=O)c1c(C)[nH]c(C(=O)OCc2ccccc2)c1C,-0.337
27,O=C(CCN1c2ccccc2Sc2ccccc21)OCC(=O)N1CCN(C(=O)c2ccco2)CC1,0.364
